Assay results: the RNAGym collection of RNA variant scans (doi:10.1073/pnas.2313332121)
This sample is rich in variants without activity.

B1: TPR 5TU (parent)
chain: GGAUCUUCUCGAUCUAACAAAAAAGACAAAUCUGCCACAAAGCUUGAGAGCAUCUUCGGAUGCAGAGGCGGCAGCCUUCGGUGGCGCGAUAGCGCCAACGUUCUCAACUAUGACACGCAAAACGCGUGCUCCGUUGAAUGGAGUUUAUCAUG

Variants of: B1
Assay: polymerase ribozyme fitness, log enrichment relative to wild type (log ratio); higher = more active; in vitro selection for triplet polymerase activity
Outline: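 The heterodimeric triplet polymerase ribozyme's subunits were each mutagenized into PCR-built libraries and transcribed. Every library was selected once, in triplicate, by annealing with a biotinylated primer, the partner subunit and triplets, incubating frozen at −7 °C, gel-excising extended constructs, capturing on streptavidin beads and running RT-PCR. Input and output libraries were Illumina-sequenced, with genotypes kept only at ≥10 input reads and ≥1 read per output. Fitness, from inverse-variance-weighted replicate averages, is the base-2 logarithm of genotype enrichment over wild-type enrichment.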

Variant	polymerase ribozyme fitness (log ratio)
GGAUCUUCUCGAUCUAACAAAAAAGUCAAAUCUGCCACAAAGCUUGAGAGGAUGUCUGGCUGCAGAGACGGCAGCCAUCGGUGGCGCCAUAGCGCCAACGUUCUCAACUAUGACACGCAAAACGCCUGCUCCGUUGAAUGGAGUUUAUCAUG	≤ -4.2
GGAUCUUCUCGAUCUAACAAAAAAGUCAAAUCUGCCACAAAGGUUGAGAGCAUCUUCGGAUGCAGAGGCGGCAGCCUUCGGUGGGGCGAUAGCGCCAACGUUCUCAACUAUGACACGCAAAACGCGUGCUCUGUUGAAUGGAGUUUAUCAUG	≤ -4.2
GGAUCUUCUCGAUCUAACAAAAAAGUCAAAUCUGCCACAAAGCUUGAGAGCAUCUUCGGUUGCAGAGGCGGCACCCUUCGUUGGGGCGAUAACGCCAACGUUCUCAACGAUGACACGCAAAACGCGUGCUCCUUUGAAUGGAGUUUAUCUUG	≤ -4.2
GGAUCUUCUCGAUCUAACAAAAAAGUCAAAUCUGCUACAAAGCUUGAGAGCAUCUUCGGAUGCAGAGGCGGCAGCCUUCGGUGGCGGGAUAGCGUCAACGUUCUCAACUAUGACACCCAAAACGCGUACUCCGUUGAAUGGAGUUUAUCAUA	≤ -4.2
GGAUCUUCUCGAUCUAACAAAAAAGUCAAAUCUGCCACAAAGCUUGAGAGCAUCUUCGGGUGCAGAGGCGGCAGCUUUCGGUGGUGGGAUAGCGCCAACGUUCUCAACUAUGACACGCAAAACGCGUGCUCCGUUGAAUCGAGUUUAUCAUG	≤ -4.2
GGAUCUUCUCGAUCUAACAAAAAAGUCAAAUCUGCCACAAAGCUUGAGAGCAUCUUCGGAUGCAGAGGCGGCUGCCUUCGGUGGCGCGAUAGUGCCAACGUUCUCAACUAUGACACGCAAAACGCGUGCUCCGUUGAAUGGAGUUUAUCAUG	≤ -4.2
GGAUCUUCUCGAUCUAACAAAAAAGUCAAAUCUGCCACAAAGCUUGAGAGCAUCUUCGGAUGCAGAGGCGGCUGCCUUCGGUGGCGCAAUAGCGCCAACGUUCUCACCUAUGAGACGCAAAACGCGUGCUCCGUUGAAUGGAGUUUAUCAUG	≤ -4.2
GGAUCUUCUCGAUCUAACAAAAAAGUCAAAUCUGCCACAAAGCUUGAGAGCCUCUUCGGAUGCAGAGUCGGCAGCCUUCGGUGGGGCGAUAGCGCCAACGUUCUCAACUAUGACACGCAAAACGCGUGCUCCGUUGAAUGGAGUUUAUCAUG	≤ -4.2
GGAUCUUCUCGAUCUAACAAAAAAGUCAAAUGUGCCACAAAGCUUGAGAGCAUCUUCGGAAUCAGAGGCGGCAGCCUUCGGUGGCGCGAUAGCGCCAACGUUCUCAGCUAUGACACGCAAAACGCGUGCUCCGUUGAAUGGAGUUUAUGAUG	≤ -4.2
GGAUCUUCUCGAUCUAACAAAAAAGUCAAAUCUGCCAACAAGCUUGUGAGCAUCUUCGCAUGCAGAGGCGGCAGCCUUUGGUGGCGCGAUAGCGACAUCGUUCUCAACUAUGACACGCAAAACGCGUGCUCCGUUGAACGGAGUCAUUCAUG	≤ -4.2
GGAUCUUCUCGAUCUAACAAAAAAGUCAAAUCUGCCACAAAGCUUGAGAGCAUCUUCGGAUGCAGAGGCGGCAGCCUUCGGUGGCGCGCUAGCGUCAACGUUCACAGCUAUGACACGCAAAACGCGUGCUCCGUUGAAUGGAGUUUAUCAUG	≤ -4.2
GGAUCUUCUCGAUCUAACAAAAAAGUUAAAUCUGCCACAAAGCUUGAGAGCAUCUUCGUAUGCAGAGGCGCCAGCCUUCGGUGGCACGAUAGCGCCAACGUUCUCAACUAUGACACGCAAAACGCGUGCUCAGUUGAAUGGAGUUUAUCAUG	≤ -4.2
GGAUCUUCUCGAUCUAACAAAAAAGUCAAAUCUGCCACAAAGGGUGAGUACAUCUUCGGAUGCAGAGGCGGCAGCCUUCGGUGGCGAGAUAGCGCCAACGUUCUCAACUAUGACCCGCAAAACGCGUGCUCCGUUGAAUGGAGUUUAUCAUG	≤ -4.2
GGAUCUUCUCGAUCUAACAAAAAAGUCAAAUCUGACACAAAGCUUGAGAGCAUCUACGGAUGCAGAGGCGGCAGCCUUCGGUGGUGCGAUAGCGCCAACGUUCUCAACUAUGACACGCAAAACGCGUGCUCCGUUGAAUGGAGUUUAUCAUG	≤ -4.2
GGAUCUUCUCGAUCUAACAAAAAAGUCAAAUCUGUCACAAAGCUUGACUACAUCUUCGGAUGCAGUGGCGGCAGCUUUCGGUGGCGCGAUAGUGCCAACGUUCUCAACUAUGACACGCAAAACGCGUGCUCCGUUGAAUGGAGUUUAUCUUG	≤ -4.2
GGAUCUUCUCGAUCUAACAAAAAAGUCAAAUCUGCAACAAAGCUUGAGAGCAUCUUCCGAUGCAGAGGCGGCAGCCUUCGGUGGCGCGGUAGCUCCAACGUUCUCAACUAUGACACGCAAAACGCGUGCUCCGUUGAGUGGAGUUUAUCAUG	≤ -4.2
GGAUCUUCUCGAUCUAACAAAAAAGUCAAAUCUGCCACAAAGCUUGAGAGCCUCUUCGGAUGCAGAGGCGGCAGCCUUCGGUAGCGCGAUAGCGCCAACGUUCUAAACUAUGACACGCAAAACGCGUGCUCCGUUGAAUGGAGUUUAUCAUG	≤ -4.2
GGAUCUUCUCGAUCUAACAAAAAAGUCAAAUCUGCCACAAAGCUUGAGAGCAUCUUCGGAUGCAGAGGCGGCGGCCUUCGGUGUCGCGAUAACGCCAACGUUCUCUACUAUGACACUCAAAACGCGUGCUCCGUUGAAUGGAGUUUAUCAUG	≤ -4.2
GGAUCUUCUCGAUCUAACAAAAAAGUCAAAUCUGCCACAAAGCUUGAGAGCAUAUUCGGAUGCAAAGGCGGCAGCCUUCGGUGGCGCGAUAGCGCCAGCGUUCUCAACUAUGACACGCAAAACGCGUGCUCCGUUGAAUGGAGUUUAUCAUG	-4.2
